Results from PubChem BioAssay AID504332 (National Center for Advancing Translational Sciences (NCATS), 2011).
Among all 350,000 compounds or so, about 31,000 (8.9%) were called active. The shares of active, inactive and inconclusive entries below differ from those in the screen. The call rests on the fitted dose curve; in most records, active means well fitted inhibition curve with a large enough effect; inconclusive means small, poorly fitted or top-dose-only effect; inactive means no such curve, though single readings can be large or run the other way. Potencies of inconclusive entries are doubtful fits and often do not repeat.

Each compound was assayed against Histone-lysine N-methyltransferase EHMT2 (Homo sapiens) (UniProt Q96KQ7) (assay: qHTS Assay for Inhibitors of Histone Lysine Methyltransferase G9a). Conditions: G9a H3K9 monomethylation, AlphaScreen, 2 h; activity, negative = inhibition: at 59 µM (top of the series) unless noted.
Sequence of UniProt Q96KQ7 (Q96KQ7 whole entry, looked up): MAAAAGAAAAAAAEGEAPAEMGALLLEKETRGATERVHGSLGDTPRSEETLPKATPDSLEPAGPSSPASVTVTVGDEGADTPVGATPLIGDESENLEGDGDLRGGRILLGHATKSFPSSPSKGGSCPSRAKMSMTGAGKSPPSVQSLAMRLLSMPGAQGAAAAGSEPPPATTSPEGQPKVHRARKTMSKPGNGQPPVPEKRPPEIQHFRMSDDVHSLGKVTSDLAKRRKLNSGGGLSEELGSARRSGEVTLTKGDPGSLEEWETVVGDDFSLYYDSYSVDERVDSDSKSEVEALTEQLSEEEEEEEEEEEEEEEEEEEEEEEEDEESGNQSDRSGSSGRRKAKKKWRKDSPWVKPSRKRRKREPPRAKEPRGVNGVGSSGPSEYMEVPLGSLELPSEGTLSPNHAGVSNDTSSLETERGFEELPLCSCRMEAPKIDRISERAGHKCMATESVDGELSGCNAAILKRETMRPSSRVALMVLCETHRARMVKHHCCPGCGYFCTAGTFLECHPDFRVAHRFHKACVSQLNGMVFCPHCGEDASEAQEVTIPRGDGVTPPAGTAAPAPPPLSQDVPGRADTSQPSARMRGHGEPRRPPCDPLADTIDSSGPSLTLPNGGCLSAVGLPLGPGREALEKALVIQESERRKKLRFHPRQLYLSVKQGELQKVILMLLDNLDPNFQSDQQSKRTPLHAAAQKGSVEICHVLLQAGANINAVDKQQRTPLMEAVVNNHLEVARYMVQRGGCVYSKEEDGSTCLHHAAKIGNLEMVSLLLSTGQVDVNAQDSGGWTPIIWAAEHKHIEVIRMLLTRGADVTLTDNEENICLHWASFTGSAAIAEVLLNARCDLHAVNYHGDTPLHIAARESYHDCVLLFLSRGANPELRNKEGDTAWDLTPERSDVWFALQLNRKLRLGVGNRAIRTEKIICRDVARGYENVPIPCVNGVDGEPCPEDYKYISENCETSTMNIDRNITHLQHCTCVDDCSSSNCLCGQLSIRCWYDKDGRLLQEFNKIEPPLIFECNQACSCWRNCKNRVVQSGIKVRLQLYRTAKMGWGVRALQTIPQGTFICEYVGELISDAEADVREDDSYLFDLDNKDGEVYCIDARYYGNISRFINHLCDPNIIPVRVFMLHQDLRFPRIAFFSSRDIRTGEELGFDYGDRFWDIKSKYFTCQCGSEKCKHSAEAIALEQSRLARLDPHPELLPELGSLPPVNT
Method in brief: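 G9a (20 nM) preincubated 15 min RT with compounds, then 500 nM biotinylated H3K9 peptide and 20 uM SAM added; 2 h RT reaction. Monomethyl-H3K9 product detected by AlphaScreen with anti-H3K9me1 antibody, streptavidin donor and anti-rabbit IgG acceptor beads.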
Further: nearly all actives have a fitted effect of over 75% in size.
On the % scale 0 is the no-effect control and ±100 the full control effect; potency means the concentration at half of the fitted maximal effect; tags describe the fitted curve by direction and shape.

Row | SMILES | Potency | activity, negative = inhibition
1 | Cc1ccc2cc3c(N)c(C(=O)Nc4c(C)[nH]c(=O)[nH]c4=O)sc3nc2c1 | active: 10 µM | –
2 | CC(C)C[C@H](NC(=O)c1[nH]cnc1C(=O)N[C@@H](C)c1ccccc1)C(=O)OCc1ccccc1 | – | inactive: 19.3% [at 12.7 µM]
3 | Cc1cccc(C)c1NC(=O)C1CCCN1C(=O)OC(C)(C)C (centres undefined) | inconclusive: 0.562 µM [inhibitor, partial curve, poor fit] | –
4 | COc1ccc(NC(=O)CN(C)S(=O)(=O)c2ccc3c(c2)OCCO3)c2ncccc12 | inconclusive: 89.1 µM [inhibitor, partial curve, poor fit] | –
5 | COC(=O)c1ccc(N2CCOCC2)c(NC(=O)Nc2cccc(OC)c2)c1 | active: 44.7 µM | –
6 | CN(C)C(CNC(=O)c1ccc(NC(=O)CC#N)cc1)c1ccccc1 (centres undefined) | inconclusive: 44.7 µM [inhibitor, partial curve] | –
7 | Nc1cccc(-n2nncc2-c2ccc(Cl)cc2)c1 | inconclusive: 15.8 µM [inhibitor, partial curve, poor fit] | –
8 | Cc1cccn2c(=O)c(/C=N/O)c(NCc3ccccc3)nc12 | inconclusive: 44.7 µM [inhibitor, partial curve] | –
9 | O=CC1=C(N2CCOCC2)/C(=C/c2ccc(Cl)cc2)CC1 | inconclusive: 31.6 µM [inhibitor, partial curve, poor fit] | –
10 | CCOC(=O)COn1c(=O)c(-c2cccs2)[n+]([O-])c2ccccc21 | inconclusive: 12.6 µM [inhibitor, partial curve, poor fit] | –
11 | CC(=O)Oc1ccc(C(=O)Nc2ccc3c(c2)C(=O)N(CCC(=O)O)C3=O)cc1 | inconclusive: 100 µM [inhibitor, single point] | –
12 | Cc1ccc(C(=O)OC2=CC(=O)CC(C)(C)C2)cc1 | inconclusive: 0.501 µM [inhibitor, full curve, poor fit] | –
13 | CC(C1CC2CCC1C2)n1c(-c2ccco2)n[nH]c1=S (centres undefined) | active: 2.24 µM | –
14 | CCc1cc(-c2n[nH]c(C)c2-c2nc3ccccc3s2)c(O)cc1OCC(=O)NN | inconclusive: 11.2 µM [inhibitor, partial curve, poor fit] | –
15 | Nc1cc(N)nc(CS)n1 | inconclusive: 79.4 µM [inhibitor, single point] | –
16 | O=C(NCCc1c[nH]c2ccccc12)c1cccc(S(=O)(=O)Nc2ccccc2Cl)c1 | inconclusive: 20 µM [inhibitor, single point] | –
17 | COc1ccc(F)c(-c2nc(CN3CCC(c4ccccc4)CC3)c(C)o2)c1 | inconclusive: 20 µM [inhibitor, full curve] | –
18 | O=c1[nH]c(/C=C\c2cccc(Cl)c2)nc(O)c1[N+](=O)[O-] | inconclusive: 89.1 µM [inhibitor, single point] | –
19 | CCOC(=O)c1ccc(NC(=S)NCCCN2CCN(C3CCCCC3)CC2)cc1 | inconclusive: 70.8 µM [inhibitor, partial curve, poor fit] | –
20 | COC(=O)c1sc(NC(=O)c2cc(-c3ccccc3)nc3ccccc23)c(C#N)c1C | inconclusive: 1.78 µM [inhibitor, full curve, poor fit] | –
21 | Cn1c(C(C)(O)C(O)c2ccccc2)nc2ccccc21 (centres undefined) | inactive | –
22 | COc1cccc(C(=O)Nc2ccc(N3CCCC3)cc2)c1 | active: 4.47 µM | –
23 | CC(=O)N1CCc2cc(S(=O)(=O)CCC(=O)N3CCN(c4cccc(C)c4C)CC3)ccc21 | inactive | –

Row | SMILES | Potency | activity, negative = inhibition
24 | Cc1nnc(SCC(=O)N(C(C)C)C(C)C)[nH]c1=O | inconclusive: 28.2 µM [inhibitor, full curve] | –
25 | O=c1[nH]c(CSc2ncc(C(F)(F)F)cc2Cl)nc2cc(C(F)(F)F)ccc12 | inconclusive: 89.1 µM [inhibitor, single point] | –
26 | CC(C)(C)NC(=O)C[n+]1ccc(C(N)=O)cc1 | inconclusive: 89.1 µM [inhibitor, single point] | –
27 | O=C(CN1C2=NCCCN2c2ccccc21)c1cccc(Br)c1 | inconclusive: 17.8 µM [inhibitor, single point] | –
28 | Cc1ccc(C)c(NC(=S)NCCc2ccc(F)cc2)c1 | inactive | –
29 | O=C(Nc1ccccc1)c1cc(S(=O)(=O)N2CCCCC2)ccc1N1CCOCC1 | inconclusive: 1.41 µM [inhibitor, single point] | –
30 | CCCOC1(C(F)(F)F)NC(=O)N(c2ccc(Cl)cc2)C1=O (centres undefined) | inactive | –
31 | C/C(=N\NC(=O)CNc1ccc(F)cc1)c1cc2ccccc2o1 | inconclusive: 50.1 µM [inhibitor, partial curve, poor fit] | –
32 | Cc1[nH]c2c(Cl)cccc2c1CCNC(=O)C1CCCCC1C(=O)OCC(F)(F)F (centres undefined) | active: 70.8 µM | –
33 | COCCNC(=O)c1ccc(NS(=O)(=O)c2cc(C)ccc2C)cc1 | inconclusive: 39.8 µM [inhibitor, full curve, poor fit] | –
34 | c1ccc(NCc2ccccn2)cc1 | inactive | –
35 | CCOC(=O)C1=C(c2ccccc2)OC(N)=C(C#N)C1c1ccco1 (centres undefined) | active: 44.7 µM | –
36 | CC1CCC2(CC1)NC(=O)N(CC(=O)Nc1sc3c(c1C(N)=O)CCC3)C2=O (centres undefined) | active: 50.1 µM | –
37 | CCOC(=O)CSc1nc2ccccc2n2cnnc12 | – | inconclusive: -63.4% [inhibitor]
38 | CCC(=O)Nc1nc2ccc(NC(=O)COc3ccccc3)cc2s1 | active: 79.4 µM | –
39 | CCCCn1c(=O)[nH]c(=O)c2c1nc(CN(C)Cc1cccc(OC)c1OC)n2CCC | active: 70.8 µM | –
40 | COc1cccc(NC(=O)Nc2cccc(-c3cn4cccnc4n3)c2)c1 | inactive | –
41 | O=C(COC(=O)C1CCCCC1)NCCc1ccccc1 | inconclusive: 20 µM [inhibitor, single point] | –
42 | COc1ccccc1NC(=O)c1c(NCc2ccc(OC)c(OC)c2OC)sc2c1CCCC2 | inconclusive: 7.94 µM [inhibitor, partial curve, poor fit] | –
43 | c1ccc2c(CSc3nnc(-c4ccncc4)o3)cccc2c1 | active: 50.1 µM | –
44 | COc1ccc(CN2C(=O)C(O)(CC(=O)c3ccc4c(c3)OCO4)c3ccccc32)cc1OC (centres undefined) | inconclusive: 89.1 µM [inhibitor, single point] | –
45 | COCCCNc1ncnc2c1nc1n2CCCC1 | inconclusive: 25.1 µM [inhibitor, single point] | –
46 | Cc1cc2ccccn2c1C(=O)c1cccc([N+](=O)[O-])c1 | active: 39.8 µM | –

Row | SMILES | Potency | activity, negative = inhibition
47 | CC(C)CC(=O)Nc1nnc(S(=O)(=O)N(C)Cc2ccco2)s1 | inconclusive: 56.2 µM [inhibitor, partial curve] | –
48 | CN1C(C(=O)c2ccccc2)=C(OC(=O)c2ccc(Br)cc2)c2ccccc2S1(=O)=O | inconclusive: 15.8 µM [inhibitor, partial curve] | –
49 | C=CCn1c(N2CCN(c3ccc(OC)cc3)CC2)nc2c1c(=O)[nH]c(=O)n2C | active: 50.1 µM | –
50 | O=C(NCCc1csc2nc(-c3ccccc3F)nn12)c1ccco1 | inactive | –
51 | O=C(Cc1coc2ccc3ccccc3c12)N1CCCC1 | inconclusive: 1.78 µM [inhibitor, full curve] | –
52 | Cc1nnc(SCC(=O)N(CC(C)C)c2c(N)n(CC(C)C)c(=O)[nH]c2=O)n1-c1ccccc1 | inconclusive: 39.8 µM [inhibitor, single point] | –
53 | Cc1cc(Cl)ccc1OCc1n[nH]c(=S)n1C1CCCCC1 | – | inconclusive: -87.1% [inhibitor] [at 12.7 µM]
54 | C=CCNC(=O)C1CC2Cn3c(nc4ccccc43)C2N1C (centres undefined) | – | inconclusive: -92.2% [inhibitor]
55 | CN1CCN(c2cc3c(cc2F)c(=O)c(C(=O)O)cn3-c2ccc(F)cc2)CC1 | inconclusive: 3.98 µM [inhibitor, partial curve, poor fit] | –
56 | O=C(NCCCn1ccnc1)C(=O)NCC(c1cccnc1)N1CCN(c2ccc(F)cc2)CC1 (centres undefined) | active: 50.1 µM | –
57 | Cc1sc2ncnc(N(C)Cc3ccco3)c2c1C | inconclusive: 100 µM [inhibitor, single point] | –
58 | CN(C(=O)COC(=O)CSc1cc(Cl)ccc1Cl)c1c(N)n(Cc2ccccc2)c(=O)[nH]c1=O | active: 7.08 µM | –
59 | COc1ccc(N2CCN(S(=O)(=O)CCNC(=O)C(c3ccccc3)c3ccccc3)CC2)cc1 | inconclusive: 5.62 µM [inhibitor, full curve] | –
60 | CCCCNC(=O)c1ccc(N2CCOCC2)c(NS(=O)(=O)c2ccc(OC)cc2)c1 | inconclusive: 25.1 µM [inhibitor, single point] | –
61 | CC1(c2ccc(Cl)c(Cl)c2)NC(=S)N2C1NC(=S)N2c1ccccc1 (centres undefined) | inactive | –
62 | Cc1ccc(S(=O)(=O)c2nc(-c3ccccc3)oc2NCc2cccnc2)cc1 | active: 50.1 µM | –
63 | Cc1cc2nn(-c3ccc(Cl)cc3)nc2cc1N | active: 12.6 µM | –
64 | c1ccc(-n2c(Cc3cn4ccsc4n3)nnc2N2CCOCC2)cc1 | inconclusive: 20 µM [inhibitor, partial curve, poor fit] | –
65 | Cc1ccc(S(=O)(=O)Nc2ccc(-c3nc4cc(NS(=O)(=O)c5ccc(C)cc5)ccc4o3)cc2)cc1 | inconclusive: 89.1 µM [inhibitor, single point] | –
66 | Cc1ccc(C)c(CN2C(=O)C(=O)c3ccccc32)c1 | inconclusive: 39.8 µM [inhibitor, partial curve, poor fit] | –
67 | c1ccc2c(c1)OCCOCCOCCOCCOCCOc1ccccc1OCCOCCOCCO2 | inconclusive: 89.1 µM [inhibitor, single point] | –
68 | CCOc1ccc2[nH]c(C)cc(=O)c2c1 | inactive | –
69 | COc1ccc(S(=O)(=O)N2CCc3ccccc32)cc1C(=O)NCc1ccco1 | inconclusive: 10 µM [inhibitor, partial curve, poor fit] | –
